In article PMC9911399, “Two distinct binding modes provide the RNA-binding protein RbFox with extraordinary sequence specificity”:
Residue numbers refer to the chain shown, from its start. Some of the results follow.

T1: RBFOX1 RRM (Homo sapiens, UniProt Q9NWB1 109-208)
T1 sequence: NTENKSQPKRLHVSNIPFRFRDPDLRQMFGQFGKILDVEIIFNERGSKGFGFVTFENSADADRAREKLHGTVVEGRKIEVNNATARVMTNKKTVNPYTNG

B1: CCUCCUC (DNA:RNA)
RNA: GGGAGACCGGAAUUCAGAUUGUCCCCUCCUCUUAAAUCCCGUCGUAGCCACCA
DNA 1: CAATCTGAATTCCGGTCTCCC
DNA 2: TGGTGGCTACGACGGGATT
B2: AGUCACC (DNA:RNA)
RNA: B1 RNA with C25A, C26G, C29A, U30C
DNA 1: CAATCTGAATTCCGGTCTCCC
DNA 2: TGGTGGCTACGACGGGATT
B3: AUAAUGG (DNA:RNA)
RNA: GGGAGACCGGAAUUCAGAUUGUCCAUAAUGGUUAAAUCCCGUCGUAGCCACCA
DNA 1: CAATCTGAATTCCGGTCTCCC
DNA 2: TGGTGGCTACGACGGGATT
B4: UACCCCU (DNA:RNA)
RNA: B1 RNA with C25U, C26A, U27C, U30C, C31U
DNA 1: CAATCTGAATTCCGGTCTCCC
DNA 2: TGGTGGCTACGACGGGATT
B5: GAUGAGC (DNA:RNA)
RNA: B1 RNA with C25G, C26A, C28G, C29A, U30G
DNA 1: CAATCTGAATTCCGGTCTCCC
DNA 2: TGGTGGCTACGACGGGATT
B6: CAUUACG (DNA:RNA)
RNA: B1 RNA with C26A, C28U, C29A, U30C, C31G
DNA 1: CAATCTGAATTCCGGTCTCCC
DNA 2: TGGTGGCTACGACGGGATT
B7: UUCAGGA (DNA:RNA)
RNA: B3 RNA with A25U, A27C, U29G, G31A
DNA 1: CAATCTGAATTCCGGTCTCCC
DNA 2: TGGTGGCTACGACGGGATT
B8: GACCCUC (DNA:RNA)
RNA: B1 RNA with C25G, C26A, U27C
DNA 1: CAATCTGAATTCCGGTCTCCC
DNA 2: TGGTGGCTACGACGGGATT
B9: GCGUGAC (DNA:RNA)
RNA: B1 RNA with C25G, U27G, C28U, C29G, U30A
DNA 1: CAATCTGAATTCCGGTCTCCC
DNA 2: TGGTGGCTACGACGGGATT
B10: CAUUGGG (DNA:RNA)
RNA: B3 RNA with A25C, U26A, A27U, A28U, U29G
DNA 1: CAATCTGAATTCCGGTCTCCC
DNA 2: TGGTGGCTACGACGGGATT
B11: ACCUGAC (DNA:RNA)
RNA: B1 RNA with C25A, U27C, C28U, C29G, U30A
DNA 1: CAATCTGAATTCCGGTCTCCC
DNA 2: TGGTGGCTACGACGGGATT
B12: AGUCGCG (DNA:RNA)
RNA: B3 RNA with U26G, A27U, A28C, U29G, G30C
DNA 1: CAATCTGAATTCCGGTCTCCC
DNA 2: TGGTGGCTACGACGGGATT
B13: AUUCGGA (DNA:RNA)
RNA: B3 RNA with A27U, A28C, U29G, G31A
DNA 1: CAATCTGAATTCCGGTCTCCC
DNA 2: TGGTGGCTACGACGGGATT
B14: CCGGAAC (DNA:RNA)
RNA: B1 RNA with U27G, C28G, C29A, U30A
DNA 1: CAATCTGAATTCCGGTCTCCC
DNA 2: TGGTGGCTACGACGGGATT
B15: CCAUUUG (DNA:RNA)
RNA: B3 RNA with A25C, U26C, A28U, G30U
DNA 1: CAATCTGAATTCCGGTCTCCC
DNA 2: TGGTGGCTACGACGGGATT
B16: GGAGAAU (DNA:RNA)
RNA: B3 RNA with A25G, U26G, A28G, U29A, G30A, G31U
DNA 1: CAATCTGAATTCCGGTCTCCC
DNA 2: TGGTGGCTACGACGGGATT
B17: UGCCAGG (DNA:RNA)
RNA: B3 RNA with A25U, U26G, A27C, A28C, U29A
DNA 1: CAATCTGAATTCCGGTCTCCC
DNA 2: TGGTGGCTACGACGGGATT
B18: CAUAUAC (DNA:RNA)
RNA: B1 RNA with C26A, C28A, C29U, U30A
DNA 1: CAATCTGAATTCCGGTCTCCC
DNA 2: TGGTGGCTACGACGGGATT
B19: UUCCUUA (DNA:RNA)
RNA: B3 RNA with A25U, A27C, A28C, G30U, G31A
DNA 1: CAATCTGAATTCCGGTCTCCC
DNA 2: TGGTGGCTACGACGGGATT
B20: UGGUAGG (DNA:RNA)
RNA: B3 RNA with A25U, U26G, A27G, A28U, U29A
DNA 1: CAATCTGAATTCCGGTCTCCC
DNA 2: TGGTGGCTACGACGGGATT
B21: CGUCACU (DNA:RNA)
RNA: B1 RNA with C26G, C29A, U30C, C31U
DNA 1: CAATCTGAATTCCGGTCTCCC
DNA 2: TGGTGGCTACGACGGGATT
B22: UCCCCGU (DNA:RNA)
RNA: B1 RNA with C25U, U27C, U30G, C31U
DNA 1: CAATCTGAATTCCGGTCTCCC
DNA 2: TGGTGGCTACGACGGGATT
B23: ACCUGAG (DNA:RNA)
RNA: B3 RNA with U26C, A27C, A28U, U29G, G30A
DNA 1: CAATCTGAATTCCGGTCTCCC
DNA 2: TGGTGGCTACGACGGGATT
B24: UAUUUGC (DNA:RNA)
RNA: B3 RNA with A25U, U26A, A27U, A28U, G31C
DNA 1: CAATCTGAATTCCGGTCTCCC
DNA 2: TGGTGGCTACGACGGGATT
B25: GUCUAAU (DNA:RNA)
RNA: B3 RNA with A25G, A27C, A28U, U29A, G30A, G31U
DNA 1: CAATCTGAATTCCGGTCTCCC
DNA 2: TGGTGGCTACGACGGGATT
B26: CCUCAAA (DNA:RNA)
RNA: B1 RNA with C29A, U30A, C31A
DNA 1: CAATCTGAATTCCGGTCTCCC
DNA 2: TGGTGGCTACGACGGGATT
B27: AGCUUCA (DNA:RNA)
RNA: B3 RNA with U26G, A27C, A28U, G30C, G31A
DNA 1: CAATCTGAATTCCGGTCTCCC
DNA 2: TGGTGGCTACGACGGGATT
B28: CAGGGCU (DNA:RNA)
RNA: B1 RNA with C26A, U27G, C28G, C29G, U30C, C31U
DNA 1: CAATCTGAATTCCGGTCTCCC
DNA 2: TGGTGGCTACGACGGGATT
B29: UCGGUAU (DNA:RNA)
RNA: B3 RNA with A25U, U26C, A27G, A28G, G30A, G31U
DNA 1: CAATCTGAATTCCGGTCTCCC
DNA 2: TGGTGGCTACGACGGGATT
B30: UCGGAAU (DNA:RNA)
RNA: B1 RNA with C25U, U27G, C28G, C29A, U30A, C31U
DNA 1: CAATCTGAATTCCGGTCTCCC
DNA 2: TGGTGGCTACGACGGGATT
B31: GUACAAA (DNA:RNA)
RNA: B3 RNA with A25G, A28C, U29A, G30A, G31A
DNA 1: CAATCTGAATTCCGGTCTCCC
DNA 2: TGGTGGCTACGACGGGATT

The binders below were run against T1, RBFOX1 RRM (assay: EMSA; HiTS-Eq, 1 nM pool, 10 min; buffer printed only for the single-RNA assays: 10 mM Tris pH 7.5, 150 mM NaCl, 3.4 mM EDTA, 0.001% NP-40, 30 C). Settings: tags: His6 N-terminal (pET28a); label: 5' 32P.
How it was run: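 Relative association constants, normalised to the cognate motif, were derived by comparing read counts of each RNA species with those of the control reaction. The RNA sequenced was the free fraction, separated by 8% native PAGE after a 10 min equilibration in 50 µL of 1 nM 5′-radiolabelled RNA (7 randomized nucleotides) with increasing concentrations of purified wild-type or mutant RbFox RRM.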
In the case of B1, the binding signal is reported as 0.00747 KA relative to UGCAUGU.
For B2, the binding signal was 0.00324 KA relative to UGCAUGU.
In the case of B3, the binding signal is reported as 0.00564 KA relative to UGCAUGU.
For B4, the binding signal was 0.000824 KA relative to UGCAUGU.
For B5, the binding signal was 0.0153 KA relative to UGCAUGU.
B6 was tested, and the binding signal was 0.00857 KA relative to UGCAUGU.
For B7, the binding signal was 0.00272 KA relative to UGCAUGU.
B8 was tested, and the binding signal was 0.00192 KA relative to UGCAUGU.
B9 was tested, and the binding signal was 0.00835 KA relative to UGCAUGU.
With B10 the binding signal was 0.00383 KA relative to UGCAUGU.
B11 was tested, and the binding signal was 0.00816 KA relative to UGCAUGU.
With B12 the binding signal was 0.0136 KA relative to UGCAUGU.
With B13 the binding signal was 0.00416 KA relative to UGCAUGU.
In the case of B14, the binding signal is reported as 0.014 KA relative to UGCAUGU.
In the case of B15, the binding signal is reported as 0.00751 KA relative to UGCAUGU.
B16 was tested, and the binding signal was 0.0179 KA relative to UGCAUGU.
With B17 the binding signal was 0.0205 KA relative to UGCAUGU.
In the case of B18, the binding signal is reported as 0.000539 KA relative to UGCAUGU.
B19 was tested, and the binding signal was 0.0015 KA relative to UGCAUGU.
With B20 the binding signal was 0.014 KA relative to UGCAUGU.
For B21, the binding signal was 0.00348 KA relative to UGCAUGU.
With B22 the binding signal was 0.00198 KA relative to UGCAUGU.
B23 was tested, and the binding signal was 0.0112 KA relative to UGCAUGU.
For B24, the binding signal was 0.0187 KA relative to UGCAUGU.
B25 was tested, and the binding signal was 0.00651 KA relative to UGCAUGU.
With B26 the binding signal was 0.00359 KA relative to UGCAUGU.
In the case of B27, the binding signal is reported as 0.00577 KA relative to UGCAUGU.
With B28 the binding signal was 0.0175 KA relative to UGCAUGU.
In the case of B29, the binding signal is reported as 0.0134 KA relative to UGCAUGU.
B30 was tested, and the binding signal was 0.0096 KA relative to UGCAUGU.
With B31 the binding signal was 0.00434 KA relative to UGCAUGU.
